Measured values taken from PubChem BioAssay AID686978 (National Center for Advancing Translational Sciences (NCATS), 2013).
Where “and” joins values, the source holds several entries; their conditions need not be identical. Identical values can stand only once. The whole screen tested about 420,000 compounds, of which about 64,000 (15%) were called active. This list was built around the results that the source calls inconclusive (neither active nor inactive); the mix of calls is not that of the screen. The call rests on the fitted dose curve; in most records, active means well fitted inhibition curve with a large enough effect; inconclusive means small, poorly fitted or top-dose-only effect; inactive means flat fitted curve, though single readings scatter. Potencies of inconclusive entries are left out as doubtful fits.

test: qHTS for Inhibitors of human tyrosyl-DNA phosphodiesterase 1 (TDP1): qHTS in cells in absence of CPT; conditions: DT40 Tdp1-/- hTDP1 cells, no CPT, ATP luminescence, 48 h; activity change, negative = growth inhibition: at 46.2 µM (top of the series) unless noted; further: nearly all actives have a fitted effect of over 55% in size
How it was run: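 Stably hTDP1-transfected Tdp1-null chicken DT40 cells were treated with library compounds minus camptothecin and grown for at least 48 hr at 37 °C, after which cellular ATP was quantified by luminescence.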
On the % scale 0 is the no-effect control and ±100 the full control effect; potency means the concentration at half of the fitted maximal effect; tags describe the fitted curve by direction and shape.

Row | SMILES | activity change, negative = growth inhibition | Potency
1 | Nc1ccccc1C(=O)NC1CCCNC1=O (stereo unspecified) | inactive: -4.74% | –
2 | CCCCN1CC(=O)N2[C@@H]3c4cc(Br)ccc4OC[C@@H]3[C@H](C(=O)OCC)[C@]2(C)C1=O | inactive: -23.1% | –
3 | Cc1cccc(OCC(=O)NC2CCCc3ccccc32)c1C (stereo unspecified) | – | active: 16.4 µM
4 | O=[N+]([O-])c1ccccc1S(=O)(=O)N1CCN(C2CCCC2)CC1 | inactive: -2.35% | –
5 | Cc1ccc(-c2nnc(SCC(=O)CC(=O)Nc3ccccc3)n2-c2ccccc2)cc1 | inactive: -0.886% | –
6 | COc1ccc(Cl)cc1NC(=O)CCNS(=O)(=O)c1cccc2nonc12 | inactive: -5.79% | –
7 | Cc1ccc(N2CCN(c3nc4c(S(=O)(=O)c5ccc(C)c(C)c5)nnn4c4ccccc34)CC2)c(C)c1 | inactive: -11.2% | –
8 | NNC(=O)C1CC(O)CN1S(=O)(=O)c1ccc(Cl)cc1 (stereo unspecified) | inactive: 11.9% | –
9 | CCOc1ccc(CN(C)CC(=O)Nc2cc(OC)c([N+](=O)[O-])cc2C)cc1 | inconclusive: -34.9% [inhibitor] | –
10 | CCCCCc1ccc(C(=O)CCCC)c(=S)[nH]1 | – | inconclusive [inhibitor, partial curve]
11 | COc1ccccc1-c1ccc2c(c1)C(C)(Cc1ccccc1C#N)C(=O)N2 (stereo unspecified) | – | inconclusive [inhibitor, single point]
12 | CC(=O)Nc1cccc(-c2ccnc3c2CC(C(=O)Nc2cccc(OC(F)(F)F)c2)O3)c1 (stereo unspecified) | – | active: 18.4 µM
13 | CCS(=O)(=O)N1CCN(C2Cc3ccccc3C2)CC1 | – | inconclusive [inhibitor, partial curve]
14 | COCCn1c(-c2ccc(Cl)cc2)nc2oc3cc(OC)ccc3c(=O)c2c1=O | – | inconclusive [inhibitor, single point]
15 | CCC1CCCCN1C(=O)CSc1nnc(-c2ccc(Cl)s2)o1 (stereo unspecified) | inactive: -27.2% | –
16 | O=C(NCc1ccc2c(c1)OCO2)c1c(F)c(F)c(F)c(F)c1F | inactive: 4.07% | –
17 | O=C(Nc1ccccc1)NC1CCN(Cc2c(F)cccc2Cl)CC1 | – | inconclusive [inhibitor, single point]
18 | Cn1c(=O)c2c3c(sc2n2c(SCC(N)=O)nnc12)CC(C(C)(C)C)CC3 (stereo unspecified) | – | inconclusive [inhibitor, single point]
19 | CC(C)(C)C(=O)N1CCN(c2ncccc2C(F)(F)F)CC1 | inactive: -24.5% | –
20 | CCOc1ccccc1CNC(=O)CCC(=O)N1Cc2ccccc2Oc2ncccc21 | – | inconclusive [inhibitor, single point]
21 | COC(=O)CP(=O)(c1ccccc1)c1ccccc1 | inactive: -35.4% | –
22 | CC(/C=N/NC(=O)c1nnn(-c2nonc2N)c1C(C)C)=C\c1ccco1 | – | inconclusive [inhibitor, single point]
23 | CN(C)CCCN(C(=O)c1ccc(S(=O)(=O)N(C)Cc2ccccc2)cc1)c1nc2cc3c(cc2s1)OCO3 | – | active: 16.4 µM
24 | CC(=O)OC1CC[C@]2(C)C(CC(OC(C)=O)[C@@]3(C)C4=CC(=O)OC(c5ccoc5)[C@]4(C)CCC23)C1(C)C (stereo partly specified) | – | active: 11.6 µM and active: 20.6 µM

Row | SMILES | activity change, negative = growth inhibition | Potency
25 | Cc1ccc(CNC(=O)CCSCCC(=O)NCc2ccc(C)cc2)cc1 | inactive: 4.02% | –
26 | Cc1ccc2nc(SCC(=O)c3ccc(Cl)cc3)nc(=O)n2c1 | – | inconclusive [inhibitor, single point]
27 | CC(C)c1ccc2oc(=O)cc(CN3CCN(c4ccc(F)cc4)CC3)c2c1 | – | inconclusive [inhibitor, single point]
28 | CCn1c(SCc2ccc([N+](=O)[O-])cc2)nnc1C(C)NC(=O)c1ccc(C)cc1 (stereo unspecified) | – | inconclusive [inhibitor, single point]
29 | Cc1ccc(S(=O)(=O)c2cn(C)c3cc(N4CCCCC4)c(F)cc3c2=O)cc1 | – | inconclusive [inhibitor, single point]
30 | CCOc1ccccc1NC(=O)COc1ccc(S(=O)(=O)N2CCCC2)cc1 | – | inconclusive [inhibitor, single point]
31 | COc1cccc(N(CC(=O)NCCSc2ccccn2)S(=O)(=O)c2ccccc2)c1 | – | inconclusive [inhibitor, single point]
32 | [O-][n+]1ccc(C2CC2)cc1 | inactive: -24.4% | –
33 | Cc1ccc(-n2cnn(-c3ccc([N+](=O)[O-])cc3[N+](=O)[O-])c2=O)cc1 | – | inconclusive [inhibitor, full curve, poor fit]
34 | Cc1cccc2nc(CSc3nc4ccc([N+](=O)[O-])cc4[nH]3)cn12 | – | inconclusive [inhibitor, single point]
35 | CCOc1ccc(CN(C)C(=O)CCNC(=O)c2ccco2)cc1 | inactive: -2.7% | –
36 | CC(=O)Nc1cc2c3ccccc3n(C)c2cc1[N+](=O)[O-] | inconclusive: -29.4% [inhibitor] | –
37 | COc1ccc(NC(=O)c2ccc(COc3ccccc3)o2)cc1 | – | inconclusive [inhibitor, single point]
38 | CCc1noc(-c2ccc(N3CCCCC3)c([N+](=O)[O-])c2)n1 | inactive: 4.55% | –
39 | COc1ccc(CNc2c(CO)cnc3c2cnn3C)cc1 | – | inconclusive [inhibitor, partial curve]
40 | Cc1nc(-c2cccc(S(=O)(=O)N3CCCCCC3)c2)cs1 | inconclusive: -32.5% [inhibitor] | –
41 | Clc1ccc(-c2cccc3nccn23)cc1 | – | inconclusive [inhibitor, single point]
42 | CC(C)CN(CC(C)C)S(=O)(=O)N1CCC(C(=O)NCc2ccc(F)cc2)CC1 | – | inconclusive [inhibitor, single point]
43 | CC(C)(C)OC(=O)CNC(=O)c1[nH]cnc1C(=O)Nc1ccc(Cl)cc1 | – | inconclusive [inhibitor, single point]
44 | Cc1cc(OCC(=O)NCC2(N3CCOCC3)CCCCC2)ccc1Cl | – | inconclusive [inhibitor, single point]
45 | COc1ccc(-c2nc(C=O)cs2)cc1 | – | inconclusive [inhibitor, single point]
46 | Cc1cc(C)cc(NC(=O)CCn2cnc3cc(C)c(C)cc32)c1 | – | inconclusive [inhibitor, partial curve, poor fit]
47 | CCCSc1nc2c(cnn2-c2ccc(C)cc2)c(=O)[nH]1 | – | inconclusive [inhibitor, single point]
48 | Cc1ccc(C(=O)NCCOc2cccc(C)c2)cc1 | inactive: -5.78% | –

Row | SMILES | activity change, negative = growth inhibition | Potency
49 | COc1ccc(S(=O)(=O)CCC(=O)N2CCN(c3ccc([N+](=O)[O-])cc3)CC2)cc1 | – | active: 3.66 µM
50 | Cc1ccc(OCCCCn2c(CCNC(=O)C3CCCCC3)nc3ccccc32)cc1 | – | active: 15.8 µM
51 | CCC/C=C1/CCCOC(C(=O)NCc2ccccc2)(C(F)(F)F)C1 (stereo unspecified) | – | inconclusive [inhibitor, single point]
52 | CC12CCC(=O)C=C1CCC1C2C(O)CC2(C)C1CCC2(O)C(=O)COC(=O)COCC(=O)O (stereo unspecified) | inactive: -12.2% | –
53 | Cc1cccc(CCNC(=O)CCc2nc(-c3ccccc3F)no2)c1 | – | inconclusive [inhibitor, partial curve, poor fit]
54 | Cc1ccccc1C(=O)Nc1ccc(N2CCCC2)cc1 | inactive: -0.998% | –
55 | CSc1ccc(CN2C(=O)NC3(CCCCC3)C2=O)cc1 | – | inconclusive [inhibitor, partial curve, poor fit]
56 | CCOC(=O)CNc1nc(-c2ccncc2)nc2ccccc12 | – | inconclusive [inhibitor, single point]
57 | COc1cc(/C=C/C(=O)NC(=O)c2ccccc2O)ccc1OC(C)=O | – | inconclusive [inhibitor, single point]
58 | COC(=O)C1=C(C)N(C)C(C)=C(C(=O)OC)C1c1ccc(C(=O)OC)cc1 | – | inconclusive [inhibitor, single point]
59 | CC1(C)CC(=O)C=C(Nc2ccc3c(c2)CCC3)C1 | – | inconclusive [inhibitor, single point]
60 | O=C(N/N=C/c1ccc2c(c1)OCO2)c1ccc(NS(=O)(=O)c2cccs2)cc1 | inactive: 6.94% | –
61 | COc1ccc(N2CCN(C(=O)COC(=O)c3cccc(S(=O)(=O)Nc4cccc(C)c4)c3)CC2)cc1 | – | inconclusive [inhibitor, single point]
62 | CCC(=O)N1CCc2cc(CNC(=O)Nc3cc(Cl)ccc3C(=O)OC)ccc21 | – | inconclusive [inhibitor, single point]
63 | CCc1cccc(NC(=O)C(CC(C)C)NS(=O)(=O)c2ccc3c(c2)oc(=O)n3C)c1 (stereo unspecified) | – | inconclusive [inhibitor, single point]
64 | COc1ccc(C)cc1S(=O)(=O)Nc1ccccc1C | – | inconclusive [inhibitor, full curve, poor fit]
65 | COc1ccccc1CC(=O)NCCc1c[nH]c2ccccc12 | inactive: -9.13% | –
66 | CCCN(CCC)CCNC(=O)c1cc(-c2ccc(Br)s2)nc2ccccc12 | – | inconclusive [inhibitor, single point]
67 | COc1ccc2c(c1)OC(=O)CC2c1ccccc1OC (stereo unspecified) | inactive: 0.708% | –
68 | Nc1nc(N)c2ncc(C(=O)CCc3ccccc3)nc2n1 | – | inconclusive [inhibitor, single point]
69 | CC1(C(=O)Nc2ccc3c(c2)OCCO3)CN(S(C)(=O)=O)CC(=O)N1Cc1cccc(C(F)(F)F)c1 (stereo unspecified) | inactive: -0.697% | –
70 | CN(C)NC(=S)Nc1ccc(S(=O)(=O)N2CCCCC2)cc1 | – | inconclusive [inhibitor, partial curve]
71 | COc1ccc(N2CCN(C(=O)COC(=O)/C=C/c3ccc(C(F)(F)F)cc3)CC2)cc1 | – | inconclusive [inhibitor, partial curve]
